Out of some 410,000 compounds screened, about 7,200 (1.8%) were called active. The shares of active, inactive and inconclusive entries below differ from those in the screen. Calls follow the shape of the dose curve; as a rule, active = well fitted activation curve with a large enough effect; inconclusive = small, poorly fitted or top-dose-only effect, or another doubt; inactive = no such curve, though single readings can be large or run the other way. Potencies beside an inconclusive call are fits to weak or partial responses and may not hold up. A structure can be active in one record and inactive in another.
assay: qHTS of TDP-43 Inhibitors; settings: TDP-43 expressing yeast growth rescue, BacTiter-Glo, 24 h; growth rescue (activation): at 46.1 µM (top of the series) unless noted; also: nearly all actives have a fitted effect of over 50% in size; as to growth rescue (activation): % of control where 0% means no effect
Method in brief: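 Yeast expressing TDP-43 (pregrown in raffinose, seeded at OD600=0.02 in galactose medium) exposed to compounds 24 hr at 30 deg C. Growth read by BacTiter-Glo luminescence; rescue of toxicity appears as increased signal.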
Potency is read from the fitted curve at half-maximal effect; tags tell the direction and shape of the fitted curve.

Potency, active:
COc1ccccc1C(=O)NCCc1csc(-c2ccc(C(F)(F)F)cc2)n1 25.1 µM
CC1CN(C(=O)Nc2ccc3snnc3c2)c2ccccc21 (configuration not stated) 15.8 µM
Cc1ccc(-n2ccnc(NCc3cccs3)c2=O)cc1C 15.8 µM
O=C(COCc1cc(-c2ccc3c(c2)OCO3)on1)N1CCN(c2cccc(C(F)(F)F)c2)CC1 35.5 µM
CNC(=S)N1N=C(c2cccs2)CC1c1ccc(F)cc1 (configuration not stated) 10 µM
COc1ccc(-c2noc(-c3cc(C(C)C)[nH]n3)n2)cc1 20 µM
COc1cc(C(O)c2nc(/C=C/c3ccccc3)cs2)ccc1F (configuration not stated) 22.4 µM
S=C1SCCCN1Cc1ccc(Cl)cc1 11.2 µM
Cn1ccc2c(-c3cccc4ccccc34)cc3c(c21)C1CCC3O1 (configuration not stated) 15.8 µM

Potency, inconclusive:
Nc1nc(SCC(=O)Nc2ccc(Br)cc2Br)n[nH]1 10 µM [activator, partial curve, poor fit]
COc1cccc(/C=C/C(=O)OCC(=O)NCCC2=CCCCC2)c1 22.4 µM [activator, single point]
CN1CCN(/N=C/c2ccc(OCc3ccccc3)cc2)CC1 25.1 µM [activator, single point]
O=C(Nc1nc2ccc(Cl)cc2s1)C1CCCO1 (configuration not stated) 15.8 µM [activator, single point]
Cc1cc(N2CCN(c3ncccn3)CC2)nc2c(C)cccc12 4.47 µM [activator, partial curve]
COc1ccccc1OCC(=O)Sc1ccc(C)cc1 8.91 µM [activator, partial curve]
COc1ccc(Br)cc1CC1C(=O)Nc2ccccc21 (configuration not stated) 35.5 µM [activator, single point]
CC(C)c1nc(SCC(=O)Nc2nc3c(s2)CCCC3)c2ccccc2n1 31.6 µM [activator, single point]
Nn1c(C2CCC2)nc2cc(Cl)ccc2c1=O 12.6 µM [activator, partial curve]
COc1ccc(N(C2CSC2)S(=O)(=O)c2ccccc2)cc1 35.5 µM [activator, single point]
Cc1cc(S(=O)(=O)Nc2ncnc3sccc23)ccc1F 17.8 µM [activator, single point]
COc1ccc(-c2noc(C3CCCN(C(=O)Nc4ccccc4F)C3)n2)cc1 (configuration not stated) 17.8 µM [activator, single point]
Cc1[nH]n(-c2ccccc2)c(=O)c1N=Nc1cccc(C(=O)O)c1 7.08 µM [activator, single point]
O=c1cc(CNc2cc(Cl)ccc2Cl)nc2sccn12 3.16 µM [activator, partial curve]
CN(C(=O)NCc1noc2ccccc12)c1cccc(Cl)c1 17.8 µM [activator, partial curve]
CC(C)c1ccc(Nc2nnc(SC3CCOC3=O)s2)cc1 (configuration not stated) 10 µM [activator, partial curve, poor fit]
COc1ccc(C(=O)OCC(=O)c2ccc(Br)s2)c(OC)c1 22.4 µM [activator, partial curve, poor fit]
Cc1ccc(-c2cc(C(=O)Nc3c(C)n(C)n(-c4ccccc4)c3=O)c3ccccc3n2)cc1 12.6 µM [activator, partial curve]
O=C(CC1(CC2=NS(=O)(=O)c3ccccc3N2)CCCC1)NCCc1ccccc1 35.5 µM [activator, single point]
COc1ccc(/C=C(\C#N)C(=O)c2c(C)[nH]c3ccccc23)cc1OC 20 µM [activator, partial curve]
Cc1onc(-c2ccccc2)c1C(=O)NCC(=O)Nc1cc(Cl)ccc1Cl 35.5 µM [activator, partial curve]
COc1cc2cnc(-c3ccccc3)c(-c3ccc(C(F)(F)F)cc3)c2cc1OC 31.6 µM [activator, single point]
Cc1noc(C)c1CSCC(=O)Nc1nc2ccccc2s1 17.8 µM [activator, single point]
O=C(NCc1ccc(Cl)cc1)C1(c2cccs2)CCOCC1 12.6 µM [activator, single point]
COc1cccc(C(=O)Nc2nnc(-c3ccccc3)s2)c1OC 1.41 µM [activator, full curve]
COc1ccc(C)cc1NC(=O)C(OC(=O)c1cnc(C)cn1)c1ccccc1 (configuration not stated) 15.8 µM [activator, partial curve]
CCOc1cc(/C=N/O)ccc1OCc1ccc(F)cc1 4.47 µM [activator, partial curve]
Cc1cc(C)c(Nc2n[nH]c(=S)s2)cc1C 17.8 µM [activator, partial curve]
O=C(CCCC(=O)N1CCN(c2cccc(Cl)c2)CC1)c1ccccc1 12.6 µM [activator, partial curve]
CCN1CCN(c2nc(Nc3ccc(NC(C)=O)cc3)nc(Nc3ccc(NC(C)=O)cc3)n2)CC1 11.2 µM [activator, partial curve]
CCN1c2ccccc2S(=O)(=O)c2ccccc21 10 µM [activator, single point]
O=C(COc1ccccc1)NCCc1csc(-c2ccc(F)cc2)n1 31.6 µM [activator, single point]
COC(=O)c1c(NC(=O)c2ccco2)sc2c1CCN(C(C)=O)C2 35.5 µM [activator, partial curve]
COc1ccc(S(=O)(=O)n2cnc3ccccc32)c(C)c1 12.6 µM [activator, partial curve]
CC1(C)CC(=O)C=C(c2ccc3ccccc3c2)C1 3.55 µM [activator, partial curve]
CCN(CC)CCOC(=O)c1ccc(N)cc1 14.1 µM [activator, single point]
CCOC(=O)N1CCN(C(=O)c2ccc3nc(SCc4ccc(F)cc4)n(C)c3c2)CC1 28.2 µM [activator, single point]
CCc1nc(-c2ccc(OC)c(OC)c2)cc2cc(OC)c(OC)cc12 11.2 µM [activator, single point]
Cc1cc(C)nc(-n2cc(C(=O)c3cc(F)ccc3O)cn2)n1 20 µM [activator, single point]
Cc1ccccc1Nc1nc(N)nc(COC(=O)c2ccc([N+](=O)[O-])o2)n1 35.5 µM [activator, single point]
CC(Oc1cc(Cl)ccc1Cl)C(=O)N/N=C\c1ccnn1C (configuration not stated) 11.2 µM [activator, partial curve]
COc1cccc(NC(=O)COc2ccc(C)cc2)c1 25.1 µM [activator, partial curve]
CCCCOCCCNC(=O)C[C@@H]1C[C@@]2(C(=O)OC)CCCCC=C2N(CCC2=CCCCC2)C1=O 0.501 µM [activator, partial curve, poor fit]
COc1ccccc1CNC(=O)CCSCc1cccc(Cl)c1 12.6 µM [activator, partial curve]
N#Cc1cc(-c2ccccc2)nc(Oc2ccccc2)n1 11.2 µM [activator, partial curve]
COC(=O)c1n[nH]n(-c2cc(Cl)cc(Cl)c2)c1=O 11.2 µM [activator, partial curve]

Potency, inactive:
O=c1c2ccccc2nc2n1CCCCC2
Cc1cc(-c2cc(-c3ccc(Cl)cc3)on2)nc(NC2CCCC2)n1
C=CCn1c(C(CCC(C)C)CC(C)(C)O)n[nH]c1=S (configuration not stated)
CCOc1ccccc1CNC(=O)C1CCN(Cc2cc3ccccc3n2Cc2ccccc2)CC1
Cc1ccc(-n2ncc(C(=O)N3CCN(c4cccc(C)c4C)CC3)c2C2CCNCC2)c(C)c1
COc1ccccc1NC(=O)Cc1c(F)cccc1Cl
O=C(Nc1ccnn1C1CCN(C2CCCC2)CC1)c1ccccc1
Cc1ccc(NC(c2cccc(Cl)c2)c2nnc(-c3ccccc3)o2)cc1F (configuration not stated)
Cc1c(/C=N/NC(=O)c2cc(=O)[nH]c(=O)[nH]2)c2ccccn2c1C(=O)c1ccccc1
CCCCN(C)C(=O)c1ccc2c(c1)N(Cc1cccc(Cl)c1)C(=O)c1ccccc1S2=O (configuration not stated)
O=C1CC(C(=O)N2CCN(Cc3ccccc3)CC2)CN1Cc1ccccc1 (configuration not stated)
Cc1c(OC(C)C(=O)NCC2CCC(C(=O)O)CC2)ccc2c3c(c(=O)oc12)CCCC3 (configuration not stated)
COc1ccc(C(CNC(=O)C(C)Oc2ccc(Br)cc2)N2CCOCC2)cc1 (configuration not stated)
COc1ccc(C2CC(=O)c3cc(-c4nc(-c5cccc([N+](=O)[O-])c5)cs4)c(=O)n(-c4ccccc4C)c3C2)cc1 (configuration not stated)
O=C(NCc1ccccc1F)c1cccc(NC(=O)N2CCSc3ncccc32)c1

Growth rescue (activation), inconclusive:
Cc1ccc(NC(=O)Cn2sc3ccccc3c2=O)cc1 -92.6% [activator]
CCOc1ccc(OCC(=O)NCCS(=O)(=O)N2CCN(c3ccc(OC)cc3)CC2)cc1 19.1% [activator]

— PubChem BioAssay AID652104 (National Center for Advancing Translational Sciences (NCATS), 2013)
